# PubChem BioAssay AID488969 (Vanderbilt High Throughput Screening Facility, 2010)
# Over roughly 110,000 compounds, “z-score” has its median near -0.1; the highest 2% begin near 2. This is one part of the list.
# Biological target: Metabotropic glutamate receptor 8 (Rattus norvegicus) (UniProt P70579)
# Assay: mGluR8 Gi/Go-coupled signaling modulation – cell-based, rat, thallium flux, HTS, primary screen (AID 488969)
# Settings: HEK293 rat mGluR8, GIRK (G protein-gated inwardly rectifying potassium channel) thallium flux, FluoZin2; at 10 µM; stronger effect = higher value; submaximal glutamate (EC20) added with thallium
# Sequence of UniProt P70579 (P70579 whole entry, looked up): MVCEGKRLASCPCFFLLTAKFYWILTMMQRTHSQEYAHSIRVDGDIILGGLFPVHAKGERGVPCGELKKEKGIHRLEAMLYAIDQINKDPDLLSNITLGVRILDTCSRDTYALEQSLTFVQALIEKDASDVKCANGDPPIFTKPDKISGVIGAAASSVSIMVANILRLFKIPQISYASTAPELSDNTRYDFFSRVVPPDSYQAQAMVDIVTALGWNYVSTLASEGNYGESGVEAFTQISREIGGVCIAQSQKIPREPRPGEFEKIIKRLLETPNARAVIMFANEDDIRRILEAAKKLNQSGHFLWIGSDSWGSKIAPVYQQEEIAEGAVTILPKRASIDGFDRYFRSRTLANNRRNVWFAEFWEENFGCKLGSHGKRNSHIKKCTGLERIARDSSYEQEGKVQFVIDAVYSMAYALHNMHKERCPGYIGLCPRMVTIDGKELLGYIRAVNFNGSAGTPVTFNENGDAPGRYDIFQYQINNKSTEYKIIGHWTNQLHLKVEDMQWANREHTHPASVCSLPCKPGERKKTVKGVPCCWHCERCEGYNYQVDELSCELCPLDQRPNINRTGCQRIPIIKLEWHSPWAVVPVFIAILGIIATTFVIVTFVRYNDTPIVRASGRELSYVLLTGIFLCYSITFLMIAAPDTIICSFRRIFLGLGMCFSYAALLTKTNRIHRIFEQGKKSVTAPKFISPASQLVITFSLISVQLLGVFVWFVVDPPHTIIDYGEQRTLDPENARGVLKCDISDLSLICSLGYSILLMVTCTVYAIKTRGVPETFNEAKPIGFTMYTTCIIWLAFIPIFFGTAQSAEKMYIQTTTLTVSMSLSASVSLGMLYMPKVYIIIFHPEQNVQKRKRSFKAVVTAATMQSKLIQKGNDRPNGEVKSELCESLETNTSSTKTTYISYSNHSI
row,Structure (SMILES),z-score
1,CCOC(=O)NC1(C(F)(F)F)C(=O)N(Cc2ccccc2)C2=C1C(=O)CC(C)(C)C2 (stereo unspecified),-0.817
2,Cc1noc(C(=O)N2CC3(C)CC2CC(C)(C)C3)c1Cl (stereo unspecified),-0.183
3,COc1ccccc1C(c1nnnn1Cc1ccco1)N1CCN(c2cccc(C)c2C)CC1 (stereo unspecified),-0.0712
4,CCOC(=O)C1C(=O)C=C(C)C(C(=O)OCC)C1c1ccc(OC)cc1 (stereo unspecified),-0.575
5,Cc1ccc(-c2nc3cccnc3o2)cc1NC(=O)COc1ccc(C(C)(C)C)cc1,0.0266
6,O=C1c2ccccc2S(=O)(=O)N1Cc1cccc(S(=O)(=O)N2CCOCC2)c1,0.684
7,COc1ccc(C(=O)N2CCN(c3cccc(Cl)c3)CC2)cc1,-0.34
8,COC(=O)C(O)(CC(=O)Nc1ccc(C)c(F)c1)C(F)(F)F (stereo unspecified),-0.207
9,Cc1csc(NC(=O)C2CCCO2)n1 (stereo unspecified),-0.199
10,Cc1scc(C(=O)Nc2ccon2)c1-c1ccccc1,-0.503
11,N#Cc1cc(NCC2CCCO2)c([N+](=O)[O-])cc1C#N (stereo unspecified),-0.0308
12,CC(C(=O)NCc1cccs1)n1cccc1 (stereo unspecified),-0.128
13,COc1ccc(NC(=O)/C=C/c2ccccc2)cn1,0.0122
14,CC(OC(=O)c1ccccc1NS(=O)(=O)c1cccc(C(F)(F)F)c1)C(=O)N(C)Cc1ccccc1 (stereo unspecified),0.0329
15,O=C(NCc1ccco1)C1CCC(N2C(=O)c3ccccc3C2=O)CC1 (stereo unspecified),-0.0663
16,COc1ccc2nc(C)cc(SCC(=O)N/N=C/c3ccccc3)c2c1,0.834
17,Cc1ccc(-c2nnc3sc(CCc4ccccc4)nn23)cc1,-1.98
18,O=C(c1ccccc1)N1CCC(=O)N1c1ccccc1,-0.252
19,Cc1ccc(CS(=O)(=O)CCC(=O)NCCCN2CCCC2=O)cc1,0.332
20,Cc1sc(NC(=O)CN2CCOCC2)nc1-c1ccc2c(c1)CCN2S(=O)(=O)c1ccccc1,-0.434
21,O=C(Nc1cccc(Br)c1)c1ccc(Cl)c(S(=O)(=O)N2CCOCC2)c1,0.485
22,S=C(NCc1cccnc1)Nc1ccc(Cl)cc1,-0.0765
23,COc1ccc(CCNC2=C(Cl)C(=O)N(CCc3ccc(OC)c(OC)c3)C2=O)cc1OC,0.0704
24,COc1ccc(CCNC2=NCC(C)S2)cc1 (stereo unspecified),0.0523

row,Structure (SMILES),z-score
1,COc1ccc(C(NC(=O)CC(C)C)NC(=O)CC(C)C)cc1OC,0.0629
2,COC(=O)Cn1cnc2sc(C)c(S(=O)(=O)N3CCN(c4ccccc4OC)CC3)c2c1=O,-0.493
3,Cc1c(-c2ccccc2)nc2ccccc2c1C(=O)NCc1cccs1,-0.631
4,CCOC(=O)c1sc(NC(=O)Nc2ccccc2)cc1C,-0.416
5,COc1ccc(/C=N/N2CCN(c3ccccc3OC)CC2)cc1OC,-0.122
6,COc1ccc(/C=C/C(=O)c2ccc3ccccc3c2O)cc1CN1CCOCC1,-0.236
7,Cc1nc2cc(NC(=O)COc3ccc(C#N)cc3)ccc2n1-c1ccccc1,0.0424
8,CC1CCC2(CC1)NC(=O)N(CC(=O)Nc1nc(-c3ccc(F)cc3)cs1)C2=O (stereo unspecified),-0.163
9,Cc1cccc(NC(NC(=O)c2cccnc2)C(Cl)(Cl)Cl)c1 (stereo unspecified),-0.197
10,CCc1c(C)c(C#N)c2nc3ccccc3n2c1NCC1CCCO1 (stereo unspecified),-0.736
11,CCOC(=O)N1CCC(c2cc(=O)n3[nH]ccc3n2)CC1,-0.185
12,CC1=C(C(=O)OCC(C)C)C(c2ccc(F)cc2)NC(=O)N1 (stereo unspecified),-0.189
13,Cc1ccc(S(=O)(=O)N/N=C/C(C)(C)CO)cc1,0.00385
14,O=C(Nc1nnc(Cc2ccc(Cl)cc2)s1)c1ccco1,-0.101
15,CC(C)(C)C(=O)NC(=S)NCCc1ccccc1,-0.0291
16,S=c1[nH]ncc2ccccc12,1.12
17,Cn1c(Cc2cccs2)n[nH]c1=S,-0.0633
18,CSc1ccc(-c2nc(CSCC(=O)N3CCOCC3)c(C)o2)cc1,-0.386
19,Cn1c(=O)c2c(nc(Br)n2CCCc2ccccc2)n(C)c1=O,-0.207
20,COc1cc(NC(=S)N2CCN(c3ccccn3)CC2)cc(OC)c1,-0.119
21,CCCCN1C(=O)C(NC(=O)CC(C)C)(C(F)(F)F)C2=C1CC(C)(C)CC2=O (stereo unspecified),0.318
22,Cc1ccccc1-n1c(SCC(=O)N/N=C/C=C/c2ccccc2[N+](=O)[O-])nc2ccccc2c1=O,-2.08
23,c1ccc(Nc2nc(-c3ccncc3)cs2)cc1,-0.305
24,Cc1nc2ccc(-c3nc4ccccc4o3)cc2[nH]1,0.886

row,Structure (SMILES),z-score
1,CC(=O)NCc1ccc(C(=O)CSc2nnc(-c3ccncc3)n2Cc2ccccc2)o1,-0.582
2,CCC1(CC)C(=O)N(C)C(=O)NC1=NCc1ccccc1,0.146
3,Cc1cc(C)c2nc(N3CCC(C(=O)N4CCCC4)CC3)sc2c1,0.802
4,Cc1ccc(C(=O)Nc2ccc(S(=O)(=O)N3CCc4ccccc4C3)cc2)o1,-0.223
5,O=C(CSc1nc2ccccc2s1)Nc1ccc2c(c1)OCO2,0.271
6,COC(=O)c1ccc(Oc2nc(N(C)C)nc(N3CCOCC3)n2)cc1,-0.191
7,O=C(CN1CCN(c2nc(-c3ccc(F)cc3)cs2)CC1)Nc1ccc2c(c1)OCO2,-0.548
8,OCCn1c(SCCOc2ccccc2F)nc2ccccc21,-0.0383
9,CCN1CCN(S(=O)(=O)c2cc(OCC(=O)NC3CCCCC3)c(C)cc2Cl)CC1,-0.107
10,CCOc1ccccc1NC(=S)NCc1ccco1,-0.353
11,COc1cc(OC)cc(-c2nnc(SCC(=O)N(Cc3ccccc3)C(C)(C)C)o2)c1,-0.513
12,Cn1c(=O)c2c(SCC(=O)N3CCOCC3)nc(CC(C)(C)C)nc2n(C)c1=O,0.012
13,COc1ccc(CNC(=O)C23CN(Cc4ccccc4)CC2C(c2ccc([N+](=O)[O-])cc2)=NO3)cc1 (stereo unspecified),-0.186
14,CCOC(=S)N/C(=N\S(=O)(=O)c1ccc(C)cc1)c1ccccc1,1.01
15,Cc1ccc(N(NC(=O)C(C)(C)O)C(=O)c2ccccc2)cc1C,-0.118
16,COC(=O)c1cc(=O)n(Cc2ccc3c(c2)OCO3)c(=Nc2ccc(F)cc2)s1,0.0157
17,FC(F)(F)c1cccc(NC(=S)NC(c2ccccc2)c2ccccc2)c1,0.0552
18,CCn1c(SCC(=O)NCc2ccco2)nnc1-c1c[nH]c2ccccc12,-0.471
19,O=c1[nH]ncc(N/N=C/c2ccccc2)c1Cl,0.241
20,COCCNC(=S)NNC(=O)c1ccco1,0.195
21,COc1cc(NC(=O)CCc2c(C)nc3nc(C)nn3c2C)cc(OC)c1,-0.431
22,CCN(CC(=O)N1CCc2ccccc2C1)S(=O)(=O)c1ccc2ccccc2c1,-0.35
23,O=C(N/N=C1/CCSC1)c1cccc([N+](=O)[O-])c1,-0.137
